Assay results reported in the supplement of paper PMC11876631.
± gives the standard deviation of the averaged measurements. Laboratory Escherichia coli strains with one amino-acid change in an essential protein, pooled on minimal glucose agar with carbenicillin or gentamicin at twice the control MIC (plus kanamycin and chloramphenicol for the plasmids), 48 h. Fold change of barcode share against drug-free plates; higher = less susceptible. Active = above 20 in both replicates (the paper's putatively resistant). '<' = one read or none on drug, '>' = one read or none on a drug-free plate. Shares are relative, so most strains fall below 1 when a few take over. Listed are strains with at least 15 reads on both drug-free plates, and hits; most hits rest on fewer reference reads. Replicate rank correlation about 0.5. Edits are read from barcodes.

B1: ubiA; numbered along this chain (parent)
chain: MEWSLTQNKLLAFHRLMRTDKPIGALLLLWPTLWALWVATPGVPQLWILAVFVAGVWLMRAAGCVVNDYADRKFDGHVKRTANRPLPSGAVTEKEARALFVVLVLISFLLVLTLNTMTILLSIAALALAWVYPFMKRYTHLPQVVLGAAFGWSIPMAFAAVSESVPLSCWLMFLANILWAVAYDTQYAMVDRDDDVKIGIKSTAILFGQYDKLIIGILQIGVLALMAIIGELNGLGWGYYWSILVAGALFVYQQKLIANREREACFKAFMNNNYVGLVLFLGLAMSYWHF
B2: nadC; numbered along this chain (parent)
chain: MPPRRYNPDTRRDELLERINLDIPGAVAQALREDLGGTVDANNDITAKLLPENSRSHATVITRENGVFCGKRWVEEVFIQLAGDDVTIIWHVDDGDVINANQSLFELEGPSRVLLTGERTALNFVQTLSGVASKVRHYVELLEGTNTQLLDTRKTLPGLRSALKYAVLCGGGANHRLGLSDAFLIKENHIIASGSVRQAVEKASWLHPDAPVEVEVENLEELDEALKAGADIIMLDNFETEQMREAVKRTNGKALLEVSGNVTDKTLREFAETGVDFISVGALTKHVQALDLSMRFR
B3: folC; numbered along this chain (parent)
chain: MIIKRTPQAASPLASWLSYLENLHSKTIDLGLERVSLVAARLGVLKPAPFVFTVAGTNGKGTTCRTLESILMAAGYKVGVYSSPHLVRYTERVRVQGQELPESAHTASFAEIESARGDISLTYFEYGTLSALWLFKQAQLDVVILEVGLGGRLDATNIVDADVAVVTSIALDHTDWLGPDRESIGREKAGIFRSEKPAIVGEPEMPSTIADVAQEKGALLQRRGVEWNYSVTDHDWAFSDAHGTLENLPLPLVPQPNAATALAALRASGLEVSENAIRDGIASAILPGRFQIVSESPRVIFDVAHNPHAAEYLTGRMKALPKNGRVLAVIGMLHDKDIAGTLAWLKSVVDDWYCAPLEGPRGATAEQLLEHLGNGKSFDSVAQAWDAAMADAKAEDTVLVCGSFHTVAHVMEVIDARRSGGK
B4: purL; numbered along this chain (parent)
chain: MMEILRGSPALSAFRINKLLARFQAARLPVHNIYAEYVHFADLNAPLNDDEHAQLERLLKYGPALASHAPQGKLLLVTPRPGTISPWSSKATDIAHNCGLQQVNRLERGVAYYIEAGTLTNEQWQQVTAELHDRMMETVFFALDDAEQLFAHHQPTPVTSVDLLGQGRQALIDANLRLGLALAEDEIDYLQDAFTKLGRNPNDIELYMFAQANSEHCRHKIFNADWVIDGEQQPKSLFKMIKNTFETTPDHVLSAYKDNAAVMEGSEVGRYFADHETGRYDFHQEPAHILMKVETHNHPTAISPWPGAATGSGGEIRDEGATGRGAKPKAGLVGFSVSNLRIPGFEQPWEEDFGKPERIVTALDIMTEGPLGGAAFNNEFGRPALNGYFRTYEEKVNSHNGEELRGYHKPIMLAGGIGNIRADHVQKGEINVGAKLVVLGGPAMNIGLGGGAASSMASGQSDADLDFASVQRDNPEMERRCQEVIDRCWQLGDANPILFIHDVGAGGLSNAMPELVSDGGRGGKFELREILSDEPGMSPLEIWCNESQERYVLAVAADQLPLFDELCKRERAPYAVIGEATEELHLSLHDRHFDNQPIDLPLDVLLGKTPKMTRDVQTLKAKGDALAREGITIADAVKRVLHLPTVAEKTFLVTIGDRSVTGMVARDQMVGPWQVPVANCAVTTASLDSYYGEAMAIGERAPVALLDFAASARLAVGEALTNIAATQIGDIKRIKLSANWMAAAGHPGEDAGLYEAVKAVGEELCPALGLTIPVGKDSMSMKTRWQEGNEEREMTSPLSLVISAFARVEDVRHTITPQLSTEDNALLLIDLGKGNNALGATALAQVYRQLGDKPADVRDVAQLKGFYDAIQALVAQRKLLAYHDRSDGGLLVTLAEMAFAGHCGIDADIATLGDDRLAALFNEELGAVIQVRAADREAVESVLAQHGLADCVHYVGQAVSGDRFVITANGQTVFSESRTTLRVWWAETTWQMQRLRDNPECADQEHQAKSNDADPGLNVKLSFDINEDVAAPYIATGARPKVAVLREQGVNSHVEMAAAFHRAGFDAIDVHMSDLLTGRTGLEDFHALVACGGFSYGDVLGAGEGWAKSILFNDRVRDEFATFFHRPQTLALGVCNGCQMMSNLRELIPGSELWPRFVRNTSDRFEARFSLVEVTQSPSLLLQGMVGSQMPIAVSHGEGRVEVRDAAHLAALESKGLVALRYVDNFGKVTETYPANPNGSPNGITAVTTESGRVTIMMPHPERVFRTVSNSWHPENWGEDGPWMRIFRNARKQLG

Variants of: B1
Assay: barcode share on antibiotic plates over drug-free plates; higher = less susceptible
Conditions: with Escherichia coli (laboratory strain); antibiotic: carbenicillin; 2× MIC (3.1 µg/mL)
Method: (§1)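 A pool of E. coli strains, each edited to carry one amino-acid change in an essential protein, was grown for 48 h on minimal glucose agar with or without antibiotic; strain barcodes were sequenced; mean of two replicates.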

| Variant | fold change of barcode share |
| --- | --- |
| V51D | 0.742 ± 0.049 |
| V51W | 0.348 ± 0.14 |
| L49A | 0.866 ± 0.18 |
| L49P | 0.993 ± 0.12 |
| L49D | 0.703 ± 0.028 |
| L49Q | 0.685 ± 0.12 |
| L49W | 0.645 ± 0.31 |
| L174P | 0.301 ± 0.16 |
| L174W | 0.346 ± 0.037 |
| L174A | 0.426 ± 0.18 |
| V145A | 0.322 ± 0.054 |
| V145Q | 0.574 ± 0.073 |
| V145W | 0.232 ± 0.099 |
| V145P | 0.739 ± 0.43 |
| F52Q | 0.435 ± 0.019 |
| F52W | 0.593 ± 0.064 |
| F52A | 0.516 ± 0.028 |
| F52D | 0.616 ± 0.18 |

Same assay, conditions: with Escherichia coli (laboratory strain); antibiotic: gentamicin; 2× MIC (MIC 0.45 µg/mL)

| Variant | fold change of barcode share |
| --- | --- |
| V51D | 0.0843 ± 0.061 |
| V51W | 0.0209 ± 0.012 |
| L49A | 0.245 ± 0.33 |
| L49P | 0.0746 ± 0.062 |
| L49D | 0.096 ± 0.057 |
| L49Q | 0.115 ± 0.0031 |
| L49W | 0.0732 ± 0.05 |
| L174D | 0.0287 ± 0.0095 |
| L174P | < 0.0129 |
| L174W | < 0.0135 |
| L174A | < 0.0116 |
| L174Q | < 0.0171 |
| V145A | 0.0225 ± 0.011 |
| V145Q | 0.0513 ± 0.051 |
| V145D | > 1180 [active] |
| V145W | 0.0122 ± 0.0037 |
| V145P | 0.186 ± 0.095 |
| F52Q | 0.0454 ± 0.032 |
| F52W | 0.0388 ± 0.042 |
| F52A | 0.0392 ± 0.029 |
| F52D | 0.0416 ± 0.011 |
| F52P | > 2100 [active] |

Variants of: B2
Assay: as above
Conditions: with Escherichia coli (laboratory strain); antibiotic: carbenicillin; 2× MIC (3.1 µg/mL)
Method: as §1

| Variant | fold change of barcode share |
| --- | --- |
| L128Q | 0.501 ± 0.23 |
| L128W | 0.613 ± 0.26 |
| V131P | 0.504 ± 0.031 |
| V131A | 0.506 ± 0.13 |
| V131Q | 0.457 ± 0.23 |
| L114P | 4.11 ± 0.3 |
| V125A | 0.388 ± 0.13 |
| V167W | 0.399 ± 0.14 |

Same assay, conditions: with Escherichia coli (laboratory strain); antibiotic: gentamicin; 2× MIC (MIC 0.45 µg/mL)

| Variant | fold change of barcode share |
| --- | --- |
| L128Q | 0.0329 ± 0.043 |
| L128W | 0.00609 ± 0.0015 |
| V131P | 0.0183 ± 0.017 |
| V131A | 1.62 ± 2.3 |
| V131Q | 0.0537 ± 0.071 |
| V125A | 0.015 ± 0.0086 |
| V167W | 0.0117 ± 0.0051 |

Variants of: B3
Assay: as above
Conditions: with Escherichia coli (laboratory strain); antibiotic: gentamicin; 2× MIC (MIC 0.45 µg/mL)
Method: as §1

| Variant | fold change of barcode share |
| --- | --- |
| V143D | < 0.00697 |
| V143Q | < 0.00529 |
| V143A | < 0.00298 |
| L71Q | 0.0116 ± 0.01 |
| L71A | 0.0158 ± 0.0074 |
| V329A | 0.0167 ± 0.0099 |
| F52A | 0.0487 ± 0.034 |
| L145P | 0.0128 ± 0.0041 |
| L145Q | < 0.00321 |
| L145A | 0.0187 ± 0.012 |
| L145D | < 0.00775 |
| V407A | 0.005612 ± 6.7e-06 |
| V407P | 0.0158 ± 0.0057 |

Same assay, conditions: with Escherichia coli (laboratory strain); antibiotic: carbenicillin; 2× MIC (3.1 µg/mL)

| Variant | fold change of barcode share |
| --- | --- |
| I144Q | 0.2 ± 0.051 |
| L71Q | 0.334 ± 0.085 |
| L71A | 0.34 ± 0.1 |
| L71P | 0.304 ± 0.022 |
| F52A | 0.314 ± 0.014 |
| V407A | 0.296 ± 0.054 |
| V407P | 0.542 ± 0.16 |

Variants of: B4
Assay: as above
Conditions: with Escherichia coli (laboratory strain); antibiotic: carbenicillin; 2× MIC (3.1 µg/mL)
Method: as §1

| Variant | fold change of barcode share |
| --- | --- |
| L652Q | 2.64 ± 1.2 |
| L652D | > 28.1 [active] |
| L652W | > 40.3 [active] |
| I500Q | 0.513 ± 0.18 |
| I500A | 0.56 ± 0.014 |
| I500W | 0.591 ± 0.31 |
| I500D | 2.1 ± 0.3 |
| I500P | 1.02 ± 0.066 |
| F499P | 1.77 ± 0.73 |
| F499Q | 0.686 ± 0.24 |
| F499W | 0.75 ± 0.16 |
| F499D | 0.876 ± 0.43 |
| F499A | 1.07 ± 0.34 |
| V333P | > 50.5 [active] |
| V333Q | 0.408 ± 0.18 |
| L720A | 0.592 ± 0.17 |
| L720D | > 46.3 [active] |
| L720W | 0.757 ± 0.21 |
| M512W | 1.01 ± 0.13 |

Same assay, conditions: with Escherichia coli (laboratory strain); antibiotic: gentamicin; 2× MIC (MIC 0.45 µg/mL)

| Variant | fold change of barcode share |
| --- | --- |
| L652Q | < 0.0181 |
| I500Q | < 0.00974 |
| I500A | 0.0111 ± 0.0055 |
| I500W | 0.0232 ± 0.0062 |
| I500P | < 0.00708 |
| F499P | < 0.0198 |
| F499Q | < 0.00553 |
| F499W | 0.017 ± 0.016 |
| F499D | < 0.0123 |
| F499A | < 0.00808 |
| V333A | < 0.016 |
| V333Q | < 0.00922 |
| L720A | 0.0165 ± 0.013 |
| M512W | 0.0538 ± 0.063 |
